Laboratory results as given in PubChem BioAssay AID1508624 (National Center for Advancing Translational Sciences (NCATS), 2021).
Out of some 48,000 compounds screened, about 120 (0.25%) were called active. Roughly 4% stayed inconclusive and do not appear here. Calls follow the shape of the dose curve; as a rule, active = well fitted activation curve with a large enough effect; inconclusive = small, poorly fitted or top-dose-only effect, or another doubt; inactive = no such curve, though single readings can be large or run the other way. This is one part of the list.

Test: Primary qHTS for Identification of Small Molecule Activators of Huntingtin-Antisense Promoter Activity; also: nearly all actives have a fitted effect of over 55% in size
Settings: HEK293 HTT-AS promoter firefly luciferase reporter (activity 0% = vehicle and -100% = no light), 24 h; series mostly up to 57.5 µM; activity change, positive = activation: at the top concentration
Summary of the method: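 Luminescence was read after Dual-Glo reagent and a 10 min room-temperature incubation. Values were normalized to vehicle (0% activity) and zero RLU (-100% activity). Reporter HEK293 cells had been exposed to compounds (up to 57.5 uM final) for 24 h.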

Activity change, positive = activation, inactive:
Cc1cc(Br)cc2c(C(=O)OCC(=O)c3ccccc3)cc(-c3ccccc3)nc12 6.08%
Cc1c(-c2nnc(SCC(=O)Nc3ccc(Cl)cc3)o2)nnn1-c1ccc(F)cc1 2.87%
COc1ccccc1N1CCN(C(=O)c2cnc(N3CCOCC3)c3ccccc23)CC1 -36.4%
CCN1CCSc2ccc(C(=O)NCc3ccccc3Br)cc21 -11.7%
O=c1[nH]c(SCc2cccc(Cl)c2)nc2c1CCC2 3.3%
Cc1cc(CN2CCN(c3ccc(F)cc3)CC2)cs1 -10.2%
COC(=O)Cc1c(C)nc2nc(-c3ccc(C)cc3)[nH]n2c1=O -21.4%
CCOc1cccc2sc(NC(=O)CS(=O)(=O)c3ccc(C)cc3)nc12 -10.7%
CCN(Cc1ccccc1)S(=O)(=O)c1ccc(F)c(C(=O)Nc2cc(C(F)(F)F)ccc2Cl)c1 -16%
COc1ccc(-n2c(=O)c3sc4ccccc4c3n(CC(=O)NC3CCCCC3)c2=O)cc1 -4.38%
CC(C)c1ccc(N2C(=O)N(Cc3ccccc3Cl)c3ccccc3S2(=O)=O)cc1 -24.8%
CCS(=O)(=O)c1c(Nc2cc(C)ccc2C)sc(C(=O)c2ccccc2)c1N -38.6%
COc1cccc(-c2nc(S(=O)(=O)c3ccccc3)c(N3CCC(C)CC3)o2)c1 -9.6%
Cc1ccc(C(=O)n2nc(C)c(S(=O)(=O)N3CCOCC3)c2C)cc1C -18.8%
CC1=C(C(=O)Nc2ccccc2)C(c2cc(Br)ccc2F)n2ncc(C(=O)Nc3ccccc3)c2N1 (stereo unspecified) -24.6%
O=C(Nc1ccccc1)OCC(CN1CCCCC1)OC(=O)Nc1ccccc1 (stereo unspecified) -33.6%
Cc1ccc(NC(=O)c2nnn(CC(=O)Nc3ccc(C)c(Cl)c3)c2N)c(C)c1 4.23%
O=c1c2ccccc2nc(-c2ccc(Cl)cc2)n1CCCOc1ccccc1F -1.17%
COc1ccc(CCC(=O)c2c(O)cc(O[C@@H]3O[C@H](CO)[C@@H](O)[C@H](O)[C@@H]3O[C@@H]3O[C@@H](C)[C@H](O)[C@@H](O)[C@@H]3O)cc2O)cc1O -49.9%
COc1ccc(Cn2c(CO)cnc2SCc2cccc(C)c2)cc1 11.9%
COc1ccccc1N1CCN(C(=O)CCS(=O)(=O)c2cc(Br)cc3c2N(C(C)=O)CC3)CC1 -25.4%
O=C(COc1ccc(Cl)cc1)NCC(c1ccco1)S(=O)(=O)c1ccc(Cl)cc1 (stereo unspecified) -16.4%
COc1ccc(CNC(=O)c2cc3c(=O)n(C)c4ccccc4c3n2C)c(OC)c1 -6.7%
Cc1cc(C)c2oc(-c3ccc(C)c(NC(=O)/C=C/c4ccco4)c3)nc2c1 0.941%
Cc1nc(N2CCCC2)ncc1C(=O)N1CCN(c2ccccc2F)CC1 -1.4%
CC1(C)C(=O)N(CCN2CCC(C(=O)c3ccc(F)cc3)CC2)c2ccccc21 -32.2%
